In publication PMC12136788 one finds binding signal data, which are given here for 22 molecules.

To fix the notation:
T1: UNK ZnF1-3 (human, UniProt Q9C0B0 31-174)
T1 sequence: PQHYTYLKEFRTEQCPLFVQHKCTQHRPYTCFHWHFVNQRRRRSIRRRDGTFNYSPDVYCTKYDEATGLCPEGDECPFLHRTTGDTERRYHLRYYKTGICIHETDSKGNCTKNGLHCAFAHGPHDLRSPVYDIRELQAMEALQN

B1: 113721642_113724089_572_CDS_ENSMUSG00000003316_ENSMUST00000169020|mouse|control|control (ssRNA)
RNA: GGGAGUUCUACAGUCCGACGAUCUCGAUGAUCCACCAAGCAGGAAACCAUGUAACCUUUUCCAACUGGUUCUUCCGCACAUUCUUUAAUCUCGGAAAUAGUUGACUUGCAAACCUCCCUGGCCACAGAUUCAAAUUUGGGAUCCAACAGAGGAUUGAGCAUCA
B2: chrX:140365796:140365797:-_ENSMUSG00000031285_ENSMUST00000033642|mus_mus|mus_mus_mus_hu_False|1_58 (ssRNA)
RNA: GGGAGUUCUACAGUCCGACGAUCCUUCUCAUUACUCAGUGCCUGCAAGGUUCUGGUUCGGUAGAAGCUACAGUGGGCACUAUGAGUGGGGCUAGGCAACCCAUUCAUCCGGGAGCCUCGCAUGUUCCUGGAUGUCUUGUCUCGCAACAGAGGAUUGAGCAUCA
B3: chr10:33190432:33190433:-_ENSG00000150093_ENST00000302278|hu_mus|hu_hu_hu_mus_True|28_58 (ssRNA)
RNA: GGGAGUUCUACAGUCCGACGAUCUACAUUUUCCAAACCUGCAUGUGAAUAAAACCCUGGCCACAGAGCCCCAAAACUACCUAACUGUGACUAAGAUGCUGCUGCUGUUGCAUUCAGGUUGCAAAAUCCGCCUGAGUAGGAUUCCAACAGAGGAUUGAGCAUCA
B4: 44743879_44745525_506_CDS_ENSMUSG00000022668_ENSMUST00000162512|mouse|control|control (ssRNA)
RNA: GGGAGUUCUACAGUCCGACGAUCCAUGUCAACGAAGUCUUCGGGUGCUCUAUAGCCAUACCCUGGCAUGUCCACCAAUGUAAAAUGUUUUCCAACUUUGAAAAAAUUCAUUUUCUUUGUGUGCCCCGGUUUUUUUGAGAUCCUCAACAGAGGAUUGAGCAUCA
B5: chr4:107938606:107938607:-_ENSMUSG00000034636_ENSMUST00000043616|mus_hu|motif|central (ssRNA)
RNA: GGGAGUUCUACAGUCCGACGAUCAACAUCCAGAGAAACAAGGUUAGGUAGGAUGUCUUUUUGUUCUAGUAAGCGAAGAGCGGUGUCUGAUGUAAACUGUUUAUCAUCUGAGAUAUCAAGAUGAUUCAGAUGUUUGAGUUCCCGCAACAGAGGAUUGAGCAUCA
B6: chr2:217001844:217001845:+_ENSG00000079246_ENST00000392132|hu_hu|hu_hu_hu_mus_False|38_78 (ssRNA)
RNA: GGGAGUUCUACAGUCCGACGAUCACCAACUUGAGGAUUAGAUCUUUUGUCAUAAGCAUAUCGAACUAUGGCGACCAUGUUUAACUCAUCCAAAGCAUGAAUCAGGGAGGAAAGGGCAACAGCUGCCGCCUCAUCAUCCUUUGCCAACAGAGGAUUGAGCAUCA
B7: chr5:64648305:64648306:+_ENSMUSG00000029174_ENSMUST00000119756|mus_mus|motif|central (ssRNA)
RNA: GGGAGUUCUACAGUCCGACGAUCGGGCUGAACCACAUUGUGCCCACCGAUGAGGUGGUUCUCUAUGUCAUUGUCAAAGGAGCGGAAGGUGCUACUGCGGAGGCUAGCGUCCUGGAACUCCUUCCUGAAGGCCAGCGAGCGCAGCAACAGAGGAUUGAGCAUCA
B8: chr10:28884852:28884853:+_ENSG00000095787_ENST00000354911|hu_mus|motif|central (ssRNA)
RNA: GGGAGUUCUACAGUCCGACGAUCAGAUGCUCCAUUAGCAUCAAAUGAUUUCUUUGGCUGGUGAUCAGACUGAAGCGUAAAUGGACGGGAAGGAACAGUGCUUGGGGUAGCGGUUGGAUGAACCACUGGUUUGAUGGGGUGCUGCAACAGAGGAUUGAGCAUCA
B9: chr11:119660697:119660698:+_ENSMUSG00000025583_ENSMUST00000147781|mus_mus|motif|central (ssRNA)
RNA: GGGAGUUCUACAGUCCGACGAUCGCUUACUGGGGUGCAGUUAUAUGACCUCAUGAUUCUUUCUGCCAAUAAAAAAUUUCGGAACAAACUUGCCACGAGCAGGUCCUGUCGGAAAAGCUUUUGGAAGAGAUCCCGAGGGAGCACCAACAGAGGAUUGAGCAUCA
B10: chr11:118894041:118894042:+_ENSG00000196655_ENST00000359005|hu_hu|motif|central (ssRNA)
RNA: GGGAGUUCUACAGUCCGACGAUCAGGUUCAGCCUAUGACCCAGGUCCAAAAGUUCCAGCCUUCUCUGCCACCUCCAGAGCGGGCUUCAGGUUCUGGUCAAAGAGCUCACACCUGAUAGGCAUUUCUGUCAGUGUCUGGUAGCACAACAGAGGAUUGAGCAUCA
B11: chr1:196632501:196632502:+_ENSMUSG00000026640_ENSMUST00000027952|mus_mus|motif|central (ssRNA)
RNA: GGGAGUUCUACAGUCCGACGAUCGACCCGGGACCGGAGGCUGUCUGGGCUGCCUGUGUACCUGAAGGAAGAGUCAUAUCUGCGGAUGGAUGUCCGAGAGAUGCUGGCAGAGGCAGGGAUGUUGUAGGAGGAGGUCUGCUUAGGCAACAGAGGAUUGAGCAUCA
B12: chr9:95013113:95013114:-_ENSG00000196305_ENST00000443024|hu_hu|hu_hu_hu_mus_False|1_1 (ssRNA)
RNA: GGGAGUUCUACAGUCCGACGAUCCUCAGUCAGAAAGGGCGUGUAAGGGGCCAUCAGUCUGCACAGAGAAAGCAGGACACUGAACAGUGUCUCCAGAGCCAUGACACAGUCUUCCACCCCACUCUCACCCUUUAACCUUCUGCGCAACAGAGGAUUGAGCAUCA
B13: 35767628_35771549_484_CDS_ENSMUSG00000020590_ENSMUST00000048519|mouse|control|control (ssRNA)
RNA: GGGAGUUCUACAGUCCGACGAUCGGAAAACUGGAUAACUUGCUGGAGAGGCUCAUCAAUUAUAUUGGCACCCGUCAAUCUUCUGUCAAUCUUUAUAGUCCUGGCUUCGCGUUUCAUUUCUUCUAAGCACUUAGGAACCCCAGACAACAGAGGAUUGAGCAUCA
B14: chr2:181367561:181367562:+_ENSMUSG00000002455_ENSMUST00000002529|mus_mus|motif|central (ssRNA)
RNA: GGGAGUUCUACAGUCCGACGAUCAACACGCUUCUUUGCUCGAAUGUCUGUUUCUAGCUCUGCUGCUCUGAUGUAAAUCCGGACAGACUGCGGGAGAUGACGGACAGCUUGUGCCACCACAGCCUUGGCUGUGUCCCCAGGCUGCAACAGAGGAUUGAGCAUCA
B15: chr6:114281168:114281169:-_ENSG00000196591_ENST00000368632|hu_hu|hu_hu_hu_mus_True|98_98 (ssRNA)
RNA: GGGAGUUCUACAGUCCGACGAUCUUCCAUUUUUCGGUAUAAGCCAUAAUUUAGCAGCAAGUUAUGAGUCAUCCGGAUUCUAUGAGGCUUCAUGGGAUGACCCUGGCCAUAAUAAUAAUUGCCAAUAUCACCAUCAUAGUAGUACAACAGAGGAUUGAGCAUCA
B16: chr1:60041781:60041782:+_ENSMUSG00000041040_ENSMUST00000036540|mus_hu|mus_mus_mus_hu_False|68_78 (ssRNA)
RNA: GGGAGUUCUACAGUCCGACGAUCAAGUUUACAAUAGUAAAGUAAAUGCAGUAGUGGAAUGGCAAGUUUACUUUAGUUUCACAAAAGAAAAUCUUUAUAACCCAGUCCUAGUCUUGGACAUAGUGAAAGCUAUAAAUUCUGACUCAACAGAGGAUUGAGCAUCA
B17: 19566710_19568278_1164_3pUTR_ENSG00000072210_ENST00000579855|human|control|control (ssRNA)
RNA: GGGAGUUCUACAGUCCGACGAUCAAUCAUCCGUUUGAUGAGCUUAUGGUUAUGCGAAAAUACAUAAAGAGCCAGAGGCUUUUCACGUUCAUUUAUGAAAUUUAUGGCCUCAUCUACAUUUUUCACAGGCACUAUUGGAAGAAUCAACAGAGGAUUGAGCAUCA
B18: chr9:121621712:121621713:+_ENSMUSG00000032526_ENSMUST00000035113|mus_hu|FALSE|FALSE (ssRNA)
RNA: GGGAGUUCUACAGUCCGACGAUCUUUUGAAGUGCUGGUUGGACUGGCAUCUGCAAUGGUAGCCAAAUAAAUGAGAUUUCUAUGUAACACAUGCUGGUACUGCACGCACUCGUUCCCGCGGCCCUUGUUCUGAUACUCCACAAUCAACAGAGGAUUGAGCAUCA
B19: chr5:135513207:135513208:+_ENSG00000113658_ENST00000545279|hu_hu|motif|central (ssRNA)
RNA: GGGAGUUCUACAGUCCGACGAUCAAUGUAAGCUCACAGUAUCUGUACUCAAAGUUUCUCUAAAAUUAAAACAAGUCCACGGACAAUAUAAUUGAAAAGAAUACUUCUGCAUUAUGAAACAGAAGAUAUGGGGUUCAGAGGGGACAACAGAGGAUUGAGCAUCA
B20: chr5:33459820:33459821:+_ENSG00000113407_ENST00000502553|hu_hu|motif|central (ssRNA)
RNA: GGGAGUUCUACAGUCCGACGAUCCCAGAGUCGGCUGUUGAAGAUGUUUGGGGUGACUACCUCCUGGAAUCCUCUUUUCCGGUAUUCGCUCCUAAUGAAUUCAAUAAGUGCAUUAUAAAUGUAGGCUCCUUUUGGCAGAAAAAACAACAGAGGAUUGAGCAUCA
B21: chr1:151206805:151206806:+_ENSG00000143398_ENST00000349792|hu_mus|FALSE|FALSE (ssRNA)
RNA: GGGAGUUCUACAGUCCGACGAUCCUUCUCCUUCUCCUUCUUGCUGGCCCUGCGCUUGUACGUGGAGCCCUUGAGGUCGAACUUAAGGUGCAUUUUGACGACACGGGGCAGCACAUUGUUCAUGACCACCACGCGGAUGUUCUUCAACAGAGGAUUGAGCAUCA
B22: 184695523_184702090_819_CDS_ENSG00000116406_ENST00000318130|human|control|control (ssRNA)
RNA: GGGAGUUCUACAGUCCGACGAUCUCUUGGAUAAGGAAGGCCACUGGUAGUGUUGAAAGCCGGUAAAAGUUUGUAACCUAACUGCUUUGCCAUUUGGAGAAGUUCAUCAUUGUACCACUGCAUAUAUUCACCUUUUUCUUUCAGCAACAGAGGAUUGAGCAUCA

This is one part of the list.

The target of this assay is T1, UNK ZnF1-3. As to the kind of experiment: nsRBNS (natural sequence RNA bind-n-seq); RBNS binding buffer (assumed for nsRBNS): 25 mM Tris pH 7.5, 150 mM KCl, 3 mM MgCl2, 0.01% Triton X-100, 500 ug/ml BSA, 20 U/ml SUPERase-In, 4 C; UNK is unkempt and MSI1 is Musashi-1; names of the RNAs are library labels; protein concentration not given here; high values mean tight binding.
The molecule B1 showed a binding signal of 1.2 enrichment R.

In turn, B2 had a binding signal of 0.457 enrichment R.

B3 had a binding signal of 1.22 enrichment R.

B4 gave a binding signal of 0.789 enrichment R.

Take B5: the binding signal turned out to be 1.24 enrichment R.

Turning to B6, the binding signal is 1.6 enrichment R.

B7 came in with a binding signal of 0.696 enrichment R.

B8 had a binding signal of 1.14 enrichment R.

Regarding B9, the binding signal worked out at 1.11 enrichment R.

In the case of B10, the binding signal was found to be 0.745 enrichment R.

In the case of B11, the binding signal came to 1.55 enrichment R.

In turn, B12 gave a binding signal of 0.964 enrichment R.

For B13, the binding signal worked out at 1.37 enrichment R.

B14 came in with a binding signal of 0.525 enrichment R.

Regarding B15, the binding signal is 0.856 enrichment R.

Consider B16, for which the binding signal was 0.573 enrichment R.

As for B17, the binding signal was 0.951 enrichment R.

Take B18: the binding signal was 1.26 enrichment R.

B19 gave a binding signal of 1.17 enrichment R.

B20 displayed a binding signal of 0.689 enrichment R.

In the case of B21, the binding signal came to 0.65 enrichment R.

Take B22: the binding signal came out at 0.879 enrichment R.
